Where “and” joins values, the source holds several entries; their conditions need not be identical. Equal values may be shown once. The whole screen tested about 420,000 compounds, of which about 50,000 (12%) were called active. Inconclusive means that the source gave no clear call. Such entries were picked first, then a sample of the others. Calls come from the whole dose curve; as a rule, active = well fitted inhibition curve with a large enough effect; inconclusive = small, poorly fitted or top-dose-only effect; inactive = flat fitted curve, though single readings scatter. Potencies beside an inconclusive call are fits to weak or partial responses and may not hold up.
Experiment: qHTS for Inhibitors of human tyrosyl-DNA phosphodiesterase 1 (TDP1): qHTS in cells in presence of CPT; note: nearly all actives have a fitted effect of over 55% in size
Details: chicken DT40 Tdp1-/-;hTDP1 cells + 20 nM CPT, ATP luminescence, 48 h; series mostly up to 46.2 µM
Procedure, shortened: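 Chicken DT40 Tdp1-/- cells stably complemented with human TDP1 were seeded at 400 cells/well in medium containing 20 nM camptothecin, exposed to pin-transferred compounds, and grown at 37 °C for at least 48 hr. Viability was read as ATP luminescence.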
Potency is the fitted concentration of half-maximal effect; tags give direction and shape of the fitted curve.

Row | SMILES | Potency
1 | COc1ccc(S(=O)(=O)N(C)c2ccc(C(=O)NCc3ccncc3)cc2)cc1 | inactive
2 | COc1ccc(S(=O)(=O)NCc2ccc3c(c2)CCN3C(=O)c2ccc(C)cc2)cc1Cl | active: 20.6 µM
3 | COc1cc(-c2c(C#N)c(N)nc3c2CCCC3)ccc1O | active: 14.6 µM
4 | COCCNc1cc(-c2ccccc2CN(C)C)ncn1 | inactive
5 | COc1c(S(=O)(=O)N2CCCCC2)ccc2c(S(=O)(=O)N3CCCCC3)cccc12 | active: 16.4 µM
6 | O=C(c1cc(C2CC2)nn1-c1ccccc1)N1CCN(c2ccccn2)CC1 | inconclusive: 18.4 µM [inhibitor, single point]
7 | COc1ccc2c(ccc[n+]2CC(=O)c2ccc(C)cc2)c1 | inconclusive: 23.1 µM [inhibitor, single point]
8 | COc1ccc(-c2c(-c3ccc(OCC(=O)NN)cc3O)n[nH]c2C)cc1 | inactive
9 | Cc1cc2c(cc1S(=O)(=O)CCC(=O)N1CC(C)CC(C)C1)OCC(=O)N2 (centres undefined) | inactive
10 | Cc1nc2c(C(=O)NCCc3ccc(Cl)cc3)c[nH]n2c(=O)c1Cc1ccccc1F | inactive
11 | CCOc1cc(N2CCOCC2)c(OCC)cc1NC(=O)[C@H](C)N1C(=O)C2CC=CCC2C1=O (some centres undefined) | inactive
12 | CCc1ccc(-c2cn3c(n2)sc2cc(C(=O)NCC(C)c4ccccc4)ccc23)cc1 (centres undefined) | inconclusive: 18.4 µM [inhibitor, single point]
13 | COc1ccc(N(CC(=O)N/N=C(\C)c2ccccc2)S(=O)(=O)c2ccccc2)cc1 | inactive
14 | Cc1nnc2c(N3CCN(c4ccccc4)CC3)nc3ccc(C(=O)c4ccccc4)cc3n12 | inactive
15 | Cc1ccc(C(=O)c2c[nH]c(C(=O)NCc3cccnc3)c2)cc1 | inactive
16 | CCOC(=O)/C(=N/Nc1ccccc1)c1csc(Nc2ccccc2)n1 | inconclusive: 23.1 µM [inhibitor, single point]
17 | CCCNC(=O)c1cc(C2CCCCN2C(=O)c2cc(F)ccc2C)on1 (centres undefined) | inactive
18 | O=C(Cc1ccsc1)NNC(=O)c1ccccc1O | inconclusive: 29.1 µM [inhibitor, single point]
19 | CCCc1c(-c2ccccc2F)ncn1Cc1ccccc1OC | active: 1.3 µM
20 | COc1cc(NC(=O)c2ccc(-c3cn[nH]c3)c3ccoc23)cc(OC)c1OC | active: 11.6 µM
21 | CCc1ccc(N2CCn3c2nc2c3c(=O)n(Cc3c(F)cccc3Cl)c(=O)n2C)cc1 | inconclusive: 16.4 µM [inhibitor, partial curve, poor fit]
22 | Cn1nnnc1SCCNCc1ccccc1OCc1ccc(Cl)cc1 | inconclusive: 25.9 µM [inhibitor, single point]
23 | CCOc1ccc(NC(=O)CN(C)C(=O)C2CC2C)cc1OCC (centres undefined) | inactive
24 | Cc1ccc(C(=O)N/C(=C\c2ccc([N+](=O)[O-])cc2)C(=O)NCCc2ccccc2)cc1 | inconclusive: 8.2 µM [inhibitor, partial curve]
25 | Fc1ccc2cnc(-c3ccccc3F)cc2c1 | inactive

Row | SMILES | Potency
26 | CCN(CC)CCCNC(=O)c1cn(CC)c2cc(N3CCN(C(=O)c4ccco4)CC3)c(F)cc2c1=O | inactive
27 | CCOC(=O)C1CCCN(C(=O)c2cc(-c3ccccc3)cs2)CC1 (centres undefined) | inconclusive: 25.9 µM [inhibitor, single point]
28 | CCOC(=O)N1CCN(S(=O)(=O)N(C)C)CC1 | inactive
29 | CCOc1ccccc1N=c1oc2cc(O)ccc2cc1C(=O)NCC1CCCO1 (centres undefined) | active: 11.2 µM
30 | Cn1c(=O)c2c(nc(SCC(=O)O)n2Cc2cc3c(cc2Cl)OCO3)n(C)c1=O | inactive
31 | c1cncc(CNc2nc(-c3cccnc3)nc3ccccc23)c1 | inactive and inconclusive: 23.1 µM [inhibitor, single point]
32 | CSc1ccccc1C(=O)N1CCc2ccc(NC(=O)c3ccccn3)cc2C1 | active: 13 µM
33 | COc1ccc(/C=C2\SC(=O)N(CCNC(=O)CN3C(=O)NC4(CCCC4)C3=O)C2=O)cc1 | inconclusive: 23.1 µM [inhibitor, single point]
34 | COc1cc(/C=C/C(=O)c2ccc(O)cc2)ccc1OCC#N | active: 8.2 µM
35 | O=C1CC(c2ccc(F)cc2)CC2=C1C(c1ccc([N+](=O)[O-])o1)Nc1ccccc1N2 (centres undefined) | inconclusive: 29.1 µM [inhibitor, single point]
36 | O=C(Nc1ccc(Cl)cc1)OCc1cc(-c2ccccc2)on1 | inconclusive: 23.1 µM [inhibitor, partial curve]
37 | O=C(Nc1ccc(F)c(Cl)c1)c1cc(C2CCCN(C(=O)C3CC3)C2)on1 (centres undefined) | inconclusive: 29.1 µM [inhibitor, single point]
38 | O=C(OCc1nnc(-c2ccccc2)o1)c1ccc2c(c1)C(=O)N(CCc1ccccc1)C2=O | inactive
39 | O=C(c1cccc(S(=O)(=O)N2CCCCC2)c1)N1CCc2ccccc21 | inconclusive: 23.1 µM [inhibitor, single point]
40 | Cc1cc(C)n(-c2ccc(Cl)c(C(=O)O)c2)n1 | inactive
41 | CC1=NN(c2ccc(Cl)cc2)C(=O)C1C(c1ccccc1O)c1c(C)[nH]n(-c2ccc(Cl)cc2)c1=O (centres undefined) | inconclusive: 16.4 µM [inhibitor, single point]
42 | Cn1c(=O)c2sccc2n2c(CCC(=O)N3CCN(c4cccc(Cl)c4)CC3)nnc12 | inconclusive: 7.31 µM [inhibitor, partial curve, poor fit]
43 | CC1=C(C(=O)OCC(C)C)C(c2ccsc2)C2=C(CCCC2=O)N1 (centres undefined) | inconclusive: 16.4 µM [inhibitor, single point]
44 | Cc1ccc(NNC(=O)c2ccno2)cc1Cl | inconclusive: 29.1 µM [inhibitor, single point]
45 | COc1cc(OC)cc(C(=O)N2CCN(Cc3ccccc3Br)CC2)c1 | inconclusive: 29.1 µM [inhibitor, single point]
46 | CC1=C(C(=O)OCC2CCCCC2)C(c2ccc(F)cc2)NC(=O)N1 (centres undefined) | inconclusive: 25.9 µM [inhibitor, single point]
47 | COc1cc(NC(=O)CSc2ncnc3c2cnn3Cc2ccccc2)cc(OC)c1 | inconclusive: 16.4 µM [inhibitor, partial curve, poor fit]
48 | CC(C)/C=C/CN1CCCC(N2CCN(c3cccc(Cl)c3)CC2)C1 (centres undefined) | inconclusive: 18.4 µM [inhibitor, single point]
49 | COc1ccccc1NS(=O)(=O)c1cc(NC(=O)Nc2cccc(C)c2)ccc1N1CCCCC1 | active: 14.6 µM
50 | CCCCOC(=O)c1ccc(Nc2nc3ccccc3c3nnc(C)n23)cc1 | active: 16.4 µM

Row | SMILES | Potency
51 | CCCCC(=O)Nc1nnc(S(=O)(=O)N(CC)c2cc(C)cc(C)c2)s1 | inconclusive: 29.1 µM [inhibitor, single point]
52 | CCCNC(=O)CC(NS(=O)(=O)c1ccc(NC(C)=O)cc1)C(C)C (centres undefined) | inactive
53 | Cc1cnc(-n2ncc(C(=O)NCC3COCCO3)c2C2CC2)nc1-c1cccs1 (centres undefined) | inactive
54 | COCCN(C(=O)COC(=O)C1CCC(C(C)(C)C)CC1)c1c(N)n(Cc2ccccc2)c(=O)[nH]c1=O (centres undefined) | inconclusive: 29.1 µM [inhibitor, single point]
55 | Cn1cc(Cl)c(C(=O)OCC(=O)c2ccccc2)n1 | inactive
56 | CCCSc1nc(SCC(=O)NCc2ccccc2)c2c3c(sc2n1)COC(C)(CC)C3 (centres undefined) | inconclusive: 0.651 µM [inhibitor, full curve, poor fit]
57 | O=C(NCCCn1ccnc1)c1ccc2c(c1)OCCO2 | inconclusive: 13 µM [inhibitor, partial curve]
58 | CC(C)(C)[C@@H]1C=C(C(=O)NC2CC2)O[C@H](OCc2ccc(CO)cc2)C1 | inconclusive: 29.1 µM [inhibitor, single point]
59 | N#Cc1cccc(NC(=O)N2CCC3(CC2)CCN(C(=O)c2ccco2)CC3)c1 | inactive
60 | Cc1ccsc1-c1nc(CSCC(=O)N2CCN(c3ccccc3)CC2)c(C)o1 | active: 14.6 µM
61 | C/C(=C\c1ccccc1)C(=O)c1c(C)cc(C)[nH]c1=O | inactive
62 | CC(Oc1cc2oc(=O)c3c(c2cc1Cl)CCCC3)C(=O)NCCN1CCOCC1 (centres undefined) | inconclusive: 29.1 µM [inhibitor, single point]
63 | COCCNc1nc(-c2ccccc2Cl)nc2ccccc12 | inconclusive: 29.1 µM [inhibitor, single point]
64 | Cc1nnsc1C(=O)N1CCCC(Nc2ccc(C(C)C)cc2)C1 (centres undefined) | inactive
65 | NC(=O)CC(NC(=O)c1ccccc1)c1ccc(NCc2ccccc2)c([N+](=O)[O-])c1 (centres undefined) | active: 20.6 µM
66 | COC(=O)C1C(O)CCC2CN3CCc4c([nH]c5ccccc45)C3CC21 (centres undefined) | inconclusive: 29.1 µM [inhibitor, single point]
67 | Cc1ccc(NC(=O)CSCC(=O)N(C)CCOc2ccc(Cl)cc2)cc1 | inactive
68 | Cc1cc(N2CCOCC2)nc(-c2ccc([N+](=O)[O-])cc2)n1 | inconclusive: 29.1 µM [inhibitor, single point]
69 | CN(C(=O)CSc1nc2ccccc2n1CC(=O)N(C)c1ccc(F)cc1)c1ccccc1 | active: 18.4 µM
70 | COc1ccc(-c2cc(=O)oc3cc(OCC(=O)Nc4ccccn4)ccc23)cc1 | active: 16.4 µM
71 | CCCCN(C)CCCNC(=O)c1ccc2c(c1)NC(=O)C(N1CCOCC1)S2 (centres undefined) | inactive
72 | Cc1ccccc1-n1ncc2c(SCC(=O)N3c4ccccc4CC3C)ncnc21 (centres undefined) | active: 29.1 µM
73 | O=C(NCC1CCCO1)c1ccc(/C=N/O)nc1 (centres undefined) | inconclusive: 18.4 µM [inhibitor, single point]
74 | CCCOc1ccc(-c2csc3nc[nH]c(=O)c23)cc1 | inconclusive: 20.6 µM [inhibitor, single point]

Source: PubChem BioAssay AID686979 (National Center for Advancing Translational Sciences (NCATS), 2013)
